According to the supplement of paper PMC4604168 (melanoma cell lines):
This is one part of the list. Repeats are few or missing, and single values can be far off.

What was measured:
Experiment in all cases: cell count relative to DMSO control; melanoma cells; higher = more viable cells
Settings in all cases: library dose: low library concentration; 72 h
MZ2-MEL = tested on: MZ2-MEL
MeWo = tested on: MeWo
RPMI7951 = tested on: RPMI7951
RVH-421 = tested on: RVH-421
SkMel28 = tested on: SkMel28
SkMel2 = tested on: SkMel2
SkMel30 = tested on: SkMel30
UACC62 = tested on: UACC62
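Also: cell number obtained by counting DAPI-stained nuclei in high-throughput microscope images with image analysis software, screen run in 1,536-well plates.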

Row | Structure (SMILES) | cell count (MZ2-MEL) | cell count (MeWo) | cell count (RPMI7951) | cell count (RVH-421) | cell count (SkMel28) | cell count (SkMel2) | cell count (SkMel30) | cell count (UACC62)
1 | Cn1c(=O)n(-c2ccc(C(C)(C)C#N)cc2)c2c3cc(-c4cnc5ccccc5c4)ccc3ncc21 + Nc1nc(F)nc2c1ncn2[C@@H]1O[C@H](CO)[C@@H](O)[C@@H]1O [fludarabine] (first compound 0.004 µM, partner dose 0.2 µM) | 97.8% | 36.3% | 82.6% | 93.8% | 81.2% | 8.59% | 24.7% | 100%
2 | Cn1c(=O)n(-c2ccc(C(C)(C)C#N)cc2)c2c3cc(-c4cnc5ccccc5c4)ccc3ncc21 + CCCS(=O)(=O)Nc1ccc(F)c(C(=O)c2c[nH]c3ncc(Cl)cc23)c1F [PLX4720] (first compound 0.004 µM, partner dose 0.08 µM) | 87.7% | 75.5% | 100% | 88.5% | 96.9% | 92.2% | 91.2% | 71%
3 | COc1ccc(C2=N[C@@H](c3ccc(Cl)cc3)[C@@H](c3ccc(Cl)cc3)N2C(=O)N2CCNC(=O)C2)c(OC(C)C)c1 [Nutlin-3] + Nc1cccc2c1CN(C1CCC(=O)NC1=O)C2=O [lenalidomide] (first compound 0.1 µM, partner dose 1 µM) | 99.3% | 99.8% | 101% | 71.4% | 91.6% | 98.7% | 108% | 79%
4 | Cc1cn(-c2cc(NC(=O)c3ccc(C)c(Nc4nccc(-c5cccnc5)n4)c3)cc(C(F)(F)F)c2)cn1 [nilotinib] + C=C(c1ccc(C(=O)O)cc1)c1cc2c(cc1C)C(C)(C)CCC2(C)C [Bexarotene] (first compound 0.2 µM, partner dose 2 µM) | 101% | 78% | 95.5% | 95% | 70.1% | 77.7% | 96.8% | 106%
5 | Cn1c(=O)n(-c2ccc(C(C)(C)C#N)cc2)c2c3cc(-c4cnc5ccccc5c4)ccc3ncc21 + CC(=O)c1c(C)c2cnc(Nc3ccc(N4CCNCC4)cn3)nc2n(C2CCCC2)c1=O [palbociclib] (first compound 0.004 µM, partner dose 0.04 µM) | 80.6% | 73.1% | 77.5% | 76.8% | 71.7% | 68.4% | 72% | 67.7%
6 | CC(C)C[C@H](NC(=O)[C@H](Cc1ccccc1)NC(=O)c1cnccn1)B(O)O [Bortezomib] + C[C@@H](Oc1cc(-c2cnn(C3CCNCC3)c2)cnc1N)c1c(Cl)ccc(F)c1Cl [Crizotinib] (first compound 0.001 µM, partner dose 0.2 µM) | 73.8% | 72.3% | 69.7% | 59.5% | 81% | 94.6% | 66.5% | 71.4%
7 | CC(C)C[C@H](NC(=O)[C@H](Cc1ccccc1)NC(=O)c1cnccn1)B(O)O [Bortezomib] + Nc1cccc2c1CN(C1CCC(=O)NC1=O)C2=O [lenalidomide] (first compound 0.001 µM, partner dose 1 µM) | 77.5% | 91.9% | 83.5% | 55.7% | 98.6% | 91.6% | 94.2% | 79.7%
8 | Cc1cn(-c2cc(NC(=O)c3ccc(C)c(Nc4nccc(-c5cccnc5)n4)c3)cc(C(F)(F)F)c2)cn1 [nilotinib] + Cn1c(Nc2ccc(C(F)(F)F)cc2)nc2cc(Oc3ccnc(-c4ncc(C(F)(F)F)[nH]4)c3)ccc21 [CHIR265] (first compound 0.2 µM, partner dose 0.08 µM) | 97.7% | 75% | 73.7% | 78.6% | 65.9% | 94.7% | 54.1% | 53.5%
9 | Cc1cn(-c2cc(NC(=O)c3ccc(C)c(Nc4nccc(-c5cccnc5)n4)c3)cc(C(F)(F)F)c2)cn1 [nilotinib] + COCC[n+]1c2c(n(Cc3cnccn3)c1C)C(=O)c1ccccc1C2=O [YM155] (first compound 0.2 µM, partner dose 0.0004 µM) | 65.9% | 98.2% | 87.4% | 110% | 76.3% | 86.6% | 109% | 82.5%
10 | CC(C)C[C@H](NC(=O)[C@H](Cc1ccccc1)NC(=O)c1cnccn1)B(O)O [Bortezomib] + CCCS(=O)(=O)Nc1ccc(F)c(C(=O)c2c[nH]c3ncc(Cl)cc23)c1F [PLX4720] (first compound 0.001 µM, partner dose 0.08 µM) | 39.9% | 71.8% | 73.8% | 41.5% | 93.5% | 79.3% | 84.2% | 45.9%
11 | Cc1cc(Nc2cc(N3CCN(C)CC3)nc(/C=C/c3ccccc3)n2)n[nH]1 + Clc1ccc(Nc2nnc(Cc3ccncc3)c3ccccc23)cc1 [vatalanib] (first compound 0.04 µM, partner dose 2 µM) | 99.2% | 78.7% | 77.5% | 94.5% | 93.2% | 104% | 101% | 92.4%
12 | COc1ccc(C2=N[C@@H](c3ccc(Cl)cc3)[C@@H](c3ccc(Cl)cc3)N2C(=O)N2CCNC(=O)C2)c(OC(C)C)c1 [Nutlin-3] + CS(=O)(=O)c1ccc(C(=O)Nc2ccc(Cl)c(-c3ccccn3)c2)c(Cl)c1 [vismodegib] (first compound 0.1 µM, partner dose 1 µM) | 105% | 96.1% | 99.1% | 88.5% | 99.8% | 100% | 99.8% | 104%
13 | Cc1cn(-c2cc(NC(=O)c3ccc(C)c(Nc4nccc(-c5cccnc5)n4)c3)cc(C(F)(F)F)c2)cn1 [nilotinib] + CN1CCN(c2ccc3nc(-c4c(N)c5c(F)cccc5[nH]c4=O)[nH]c3c2)CC1 [Dovitinib] (first compound 0.2 µM, partner dose 0.1 µM) | 91.3% | 110% | 107% | 106% | 95.3% | 85% | 116% | 112%
14 | Cc1cn(-c2cc(NC(=O)c3ccc(C)c(Nc4nccc(-c5cccnc5)n4)c3)cc(C(F)(F)F)c2)cn1 [nilotinib] + C[C@]1(O)C[C@@H](c2nc(-c3ccc4ccc(-c5ccccc5)nc4c3)c3c(N)nccn32)C1 [OSI906] (first compound 0.2 µM, partner dose 0.4 µM) | 85.4% | 90.4% | 86.9% | 103% | 81.4% | 83.5% | 70.6% | 84%
15 | Cc1cn(-c2cc(NC(=O)c3ccc(C)c(Nc4nccc(-c5cccnc5)n4)c3)cc(C(F)(F)F)c2)cn1 [nilotinib] + COc1ccc(Cl)c(Nc2nc3ccccc3nc2NS(=O)(=O)c2cccc(NC(=O)C(C)(C)N)c2)c1 [XL147] (first compound 0.2 µM, partner dose 0.8 µM) | 92.5% | 103% | 105% | 91.3% | 104% | 93.6% | 80.8% | 97.9%
16 | Cc1cn(-c2cc(NC(=O)c3ccc(C)c(Nc4nccc(-c5cccnc5)n4)c3)cc(C(F)(F)F)c2)cn1 [nilotinib] + Nc1ccn([C@@H]2O[C@H](CO)[C@@H](O)C2(F)F)c(=O)n1 [gemcitabine] (first compound 0.2 µM, partner dose 0.0004 µM) | 97.7% | 96.5% | 99.3% | 94% | 76.5% | 88.9% | 75.6% | 94.4%
17 | Cc1cc(Nc2cc(N3CCN(C)CC3)nc(/C=C/c3ccccc3)n2)n[nH]1 + CCCS(=O)(=O)Nc1ccc(F)c(C(=O)c2c[nH]c3ncc(Cl)cc23)c1F [PLX4720] (first compound 0.04 µM, partner dose 0.08 µM) | 82.5% | 83% | 110% | 73.6% | 77.5% | 103% | 91.5% | 63.4%
